# Results taken from the antibiotic and cytotoxicity screens of Wong et al. (2023).
# This is one part of the list.
# System: HSkMC (human skeletal muscle cells)
# Assay: cytotoxicity call (relative viability < 0.9)
# Details: 10 µM
row,SMILES,cytotoxicity call
1,O=C1CN(C(=O)c2ccc3c(c2)OCO3)CCN1,inactive
2,C[C@@H]1CN([C@H](C)CO)C(=O)c2cc(NC(=O)Nc3cccc4ccccc34)ccc2O[C@@H](C)CCCCO[C@H]1CN(C)Cc1ccncc1,inactive
3,C[C@@H]1CN([C@@H](C)CO)C(=O)c2cc(NC(=O)C3CCCCC3)ccc2O[C@@H](C)CCCCO[C@@H]1CN(C)C(=O)Nc1ccc2c(c1)OCO2,inactive
4,CC(C)NC(=O)Nc1ccc2c(c1)C(=O)N([C@@H](C)CO)C[C@@H](C)[C@H](CN(C)S(=O)(=O)c1ccc(F)cc1)O2,inactive
5,C[C@@H]1CN([C@@H](C)CO)C(=O)Cc2cc(NC(=O)Nc3ccccc3)ccc2O[C@@H]1CN(C)Cc1ccc(Cl)c(Cl)c1,active
6,C[C@@H]1CN([C@@H](C)CO)C(=O)c2cccc(NS(=O)(=O)c3ccc(Cl)cc3)c2O[C@@H]1CN(C)C(=O)Nc1ccc(C(F)(F)F)cc1,active
